In PubChem BioAssay AID1347071 (National Center for Advancing Translational Sciences (NCATS), 2019):
Among all 410,000 compounds or so, about 260 (0.063%) were called active. The inconclusive results got no clear call from the source; some entries with a clear call stand among them for comparison. Calls follow the shape of the dose curve; as a rule, active = well fitted activation curve with a large enough effect; inconclusive = small, poorly fitted or top-dose-only effect; inactive = no such curve, though single readings can be large or run the other way. No potency is given beside an inconclusive call; the fits are too rough.

test: qHTS for compounds that reverse cellular toxicity of Amyloid beta (A-beta) peptide in yeast: Primary Screen; settings: yeast expressing A-beta42, growth rescue, OD600, 48 h; growth rescue: at 46.1 µM (top of the series) unless noted; also: nearly all actives have a fitted effect of over 55% in size
Description: The A-beta peptide is produced by the processing of the amyloid precursor protein (APP) by two proteases, beta and gamma secretases. […] A-beta42 is regarded as the most amyloidogenic form due to its hydrophobicity; however, precisely how A-beta42 induces neurotoxicity is unclear. To understand further this biology and its potential therapeutic implications for human neurodegenerative disease, a quantitative high-throughput screen for compounds that reverse the cellular toxicity of the A-beta peptide was developed. A yeast based screen was used because it recapitulates the salient feature of protein mis-folding disorder accurately. This cell-based phenotypic screen provides a significant, unbiased advantage by letting the compounds and models inform us which proteins or pathways are most relevant. The ideal chemical candidates would therefore have activity in both our primary yeast and secondary neuronal toxicity assays, as well as in mouse models. They will be valuable tools for dissecting diverse protein homeostasis pathologies and could potentially become the focus for future pre-clinical development. For this luminescence assay, inhibition of A-beta rescues the toxic effect in the yeast cell, resulting in increase of signals and the desired phenotype of "Activator". This screen is run against the Molecular Libraries Small Molecule Repository (MLSMR) and the NCGC Sytravon Library Collection.
NIH Chemical Genomics Center [NCGC]
NIH Molecular Libraries Probe Centers Network [MLPCN]
Assay Submitter (PI): Susan Lindquist, Whitehead Institute, Massachusetts Institute of Technology
[1] Vassar R,et al (1999). Beta-secretase cleavage of Alzheimer's amyloid precursor protein by the transmembrane aspartic protease BACE. Science. 286: 735-741.
[2] Yan R, et al (1999). Membrane-anchored aspartyl protease with Alzheimer's disease beta-secretase activity. Nature. 402: 533-536.
Two and a half microliter / well of yeast growth medium were dispensed in a 1536 assay plate. Compounds were pinned using the Kalypsys robotic system followed by addition of 2.5 uL / well yeast solution. The assay plates were incubated at 30 C. After 48 hr, the absorbance signal at 600 nm was obtained using the PerkinElmer ViewLux plate reader to assess yeast growth. The data was normalized to the positive control of an equimolar mixture of ferric chloride (FeCl3) and clioquinol and to the negative control DMSO.
Potency is read from the fitted curve at half-maximal effect; tags tell the direction and shape of the fitted curve.

Row | SMILES | Potency | growth rescue
1 | C[N+]1=C(/C=C/Nc2ccccc2)C(C)(C)c2ccccc21 | inconclusive [activator, single point] | 
2 | CC(=O)N1CN2CN(C(C)=O)CC(C(=O)c3ccccc3)(C2)C1 | inconclusive [activator, partial curve, poor fit] | 
3 | CCCCn1c(O)c(C(=O)/C=C/c2ccc3c(c2)OCO3)c(=O)[nH]c1=O | inconclusive [activator, single point] | 
4 | CC(C(=O)c1ccc(Cl)cc1Cl)n1cncn1 (stereo not drawn) | inactive | 
5 | CCN1C(=O)N(CC)C(=O)C2(Cc3ccccc3N3CCN(c4ccccc4)CC32)C1=O (stereo not drawn) | inconclusive [activator, partial curve] | 
6 | NC(Cc1ccc(Cl)cc1)c1csc(Nc2cnccn2)n1 (stereo not drawn) | inconclusive [activator, partial curve, poor fit] | 
7 | Cc1c(C(c2ccccc2Cl)c2c(O)c3ccccc3oc2=O)c(=O)n(-c2ccccc2)n1C (stereo not drawn) | inactive | 
8 | N#CSCC(=O)N1c2ccccc2CCc2ccccc21 | inconclusive [activator, full curve] | 
9 | Fc1ccc(C2=CCN(C(c3ccc(Cl)cc3)c3nnnn3Cc3ccccc3)CC2)cc1 (stereo not drawn) | inconclusive [activator, partial curve, poor fit] | 
10 | CCCNC(=O)Cn1cnc2sc(C(=O)N3CCC4(CC3)OCCO4)c(C)c2c1=O | inactive | 
11 | CC(=O)c1cn(CCCOc2ccccc2)c2ccccc12 | inactive | 
12 | CC(C)(C)C(=O)c1cn(CC(=O)NCc2ccco2)c2ccccc12 | inconclusive [activator, partial curve, poor fit] | 
13 | Cc1ccc(-c2cc(-c3ccccc3)cc(-c3ccccc3)[n+]2-c2ccccc2)cc1 | inactive | 
14 | COC(=O)C1=C(c2ccc(F)cc2OCc2ccccc2)C[C@@H]2CC[C@H]1N2C(=O)NCc1ccc(OC)cc1 | inactive | 
15 | C[C@]12CCC3C(CC[C@H]4C[C@H](O)CC[C@]34C)C1CCC2=O (stereo partly drawn) | inactive | 
16 | CC(C)c1ccc(N2C(=O)NC(=O)/C(=C/C=C/c3ccco3)C2=O)cc1 | inconclusive [activator, full curve, poor fit] | 
17 | O=C1C(Cc2cnc[nH]2)NC(=S)N1c1ccccc1 (stereo not drawn) | inconclusive [activator, partial curve] | 
18 | O=C(CN1CCCCC1)c1ccccc1F | inconclusive [activator, single point] | 
19 | Cc1cc(C=C2C(=O)N(C)C(=S)N(C)C2=O)c(C)n1-c1ccncc1 | inconclusive [activator, single point] | 
20 | COC(=O)c1cn(Cc2ccc(F)cc2)c2ccccc12 | inconclusive [activator, partial curve] | 
21 | CCOC(=O)C(O)(c1ccc(NC(=S)NC(=O)c2ccc(Cl)cc2Cl)c(C)c1)C(F)(F)F (stereo not drawn) | inconclusive [activator, single point] | 
22 | CCC(C(=O)Nc1ccc(Cl)cc1)N1CCCC1=O (stereo not drawn) | inactive | 
23 | Cc1c(C(c2ccc(F)cc2)c2c(O)c3ccccc3oc2=O)c(=O)n(-c2ccccc2)n1C (stereo not drawn) | inconclusive [activator, full curve] | 

Row | SMILES | Potency | growth rescue
24 | CC(=O)N1CC(=O)Nc2ccc(F)cc2C1c1ccccc1 (stereo not drawn) | inactive | 
25 | CC1=CC2OC3CC4OC(=O)C=CC=CC(=O)OCCC(C)C(O)C(=O)OCC2(CC1)C4(C)C31CO1 (stereo not drawn) |  | inconclusive: -16.8% [activator]
26 | CC(C)(C)n1nnnc1C(c1cc2ccccc2o1)N1CCC2(CC1)C(=O)NCN2c1ccccc1 (stereo not drawn) | inactive | 
27 | Cc1ccc(/C=C2\C(=O)NC(=S)N(c3cccc(F)c3)C2=O)o1 | inactive | 
28 | CCOC(=O)c1c(-n2c(C)cc(/C=C3/C(=O)NC(=O)N(CC)C3=O)c2C)sc2c1CCCC2 | inactive | 
29 | CN1C(=O)C(=Cc2ccccc2OCCOc2ccc([N+](=O)[O-])cc2)C(=O)N(C)C1=O | inactive | 
30 | O=C1/C(=C/c2cc([N+](=O)[O-])ccc2Cl)N2CCC1CC2 | inactive | 
31 | COc1ccc(CCn2c(O)c(C=NCc3cccnc3)c(=O)[nH]c2=O)cc1OC | inconclusive [activator, full curve, poor fit] | 
32 | CCC(=O)c1cn(Cc2ccc(C#N)cc2)c2ccccc12 | inconclusive [activator, partial curve, poor fit] | 
33 | Cc1nn(Cc2ccccc2Cl)c(Cl)c1C(=O)OCC(=O)NC(=O)NC1CCCCC1 | inconclusive [activator, partial curve, poor fit] | 
34 | O=C(COC(=O)c1ccc(O)cc1)Nc1ccc(Cl)cc1C(=O)c1ccccc1 | inconclusive [activator, single point] | 
35 | C[C@]12CC[C@H](O)C[C@@H]1CC[C@@H]1[C@@H]2CC[C@]2(C)[C@@H](C(=O)O)C[C@@H]12 | inactive | 
36 | CCN1CCN(Cc2nc3ccc([N+](=O)[O-])cc3c(=O)n2-c2ccccc2F)CC1 | inconclusive [activator, single point] | 
37 | Cc1ccc(/C=C2\C(=O)NC(=O)N(Cc3ccccc3Cl)C2=O)o1 | inconclusive [activator, single point] | 
38 | Oc1ccc(/C=N/NP(=S)(c2ccccc2)c2ccccc2)cc1 | inconclusive [activator, full curve] | 
39 | Cc1ccc(C(c2nnnn2Cc2ccccc2)N2CC=C(c3ccc(F)cc3)CC2)cc1 (stereo not drawn) | inactive | 
40 | Cc1cccc(N2C(=O)NC(=O)/C(=C\C=C\c3ccco3)C2=O)c1 | inconclusive [activator, partial curve] | 
41 | CC(C)(C)C(O)C(Oc1ccc(Cl)cc1)n1cncn1 (stereo not drawn) |  | inconclusive: -50.6% [activator]
42 | C#CC1(O)C=CC2C3CCC4=CC(=O)CCC4C3CCC21CC (stereo not drawn) | inactive | 
43 | O=C(c1ccco1)c1cn(Cc2ccc(Cl)cc2)c2ccccc12 | inconclusive [activator, partial curve, poor fit] | 
44 | CCOC(=O)N1CCC(NC(=O)CCc2nc(C3=CCN(C)CC3)no2)CC1 | inactive | 
45 | O=C1CN=C(c2ccccc2)c2cc(Cl)ccc2N1Cc1ccc(Cl)cc1 | inconclusive [activator, partial curve] | 
46 | CCCCC/C(=N/O)c1c(C)[nH]c2ccccc12 | inconclusive [activator, single point] | 

Row | SMILES | Potency | growth rescue
47 | NC(Cc1ccccc1)c1csc(Nc2ccccn2)n1 (stereo not drawn) | inconclusive [activator, single point] | 
48 | O=c1c2ccccc2nc(CBr)n1-c1ccc(Cl)cc1 | inconclusive [activator, partial curve, poor fit] | 
49 | c1ccc(P(c2ccccn2)c2ccccn2)cc1 | inconclusive [activator, partial curve, poor fit] | 
50 | CC(C)(O)[C@H]1O[C@H]2CC[C@@]3(C)[C@@](O)(CC[C@H]4Cc5c([nH]c6ccccc56)[C@@]43C)C2=CC1=O | inconclusive [activator, single point] | 
51 | CC(C)C(=O)NC(Oc1ccccc1Cl)C(Cl)(Cl)Cl (stereo not drawn) | inconclusive [activator, single point] | 
52 | COC(=O)COc1ccc(/C=C2\C(=O)NC(=S)N(c3ccc(C)cc3)C2=O)cc1OC | inactive | 
53 | CCOC(=O)C(O)(c1cn(C)c2ccccc12)C(F)(F)F (stereo not drawn) | inconclusive [activator, single point] | 
54 | CCC(=NCc1ccco1)c1c(O)n(C2CCCCC2)c(=O)[nH]c1=O | inactive | 
55 | O=C1CN=C(c2cc([N+](=O)[O-])ccc2Cl)c2cc([N+](=O)[O-])ccc2N1 | inconclusive [activator, single point] | 
56 | Cc1cc(C=C2C(=O)NC(=S)NC2=O)c(C)n1C1CCCC1 | inconclusive [activator, full curve] | 
57 | O=[N+]([O-])c1ccc(C(c2ccc([N+](=O)[O-])cc2)c2ccc([N+](=O)[O-])cc2)cc1 | inconclusive [activator, partial curve, poor fit] | 
58 | COc1ccc2c(c1)NP(=S)(c1ccccc1)N2C (stereo not drawn) | inconclusive [activator, partial curve] | 
59 | S=C(NCCc1ccccc1)N1Cc2cc(Br)ccc2-n2nncc2C1 | inconclusive [activator, partial curve, poor fit] | 
60 | CC(C)N=C(NC(C)C)N1CC1 | inactive | 
61 | C[C@@H]1C[C@@H]([C@H](O)CC2CC(=O)NC(=O)C2)C(=O)[C@@H](C)C1 |  | inconclusive: -81% [activator]
62 | CCOc1ccc2nc(N3CCC(C(=O)N4CCC5(CC4)OCCO5)CC3)sc2c1 | inactive | 
63 | CC12CN3CC(c4ccccc4)(CN(C1)C31CCCCC1)C2=O | inconclusive [activator, single point] | 
64 | COc1ccccc1OP(=O)(Nc1ccc(Br)cc1)Oc1ccccc1OC | inconclusive [activator, single point] | 
65 | C[CH2][Hg][S]c1ccccc1C(=O)O |  | inconclusive: -67.4% [activator]
66 | CC1=NN(c2ccccc2)C(=O)/C1=C/c1c(O)[nH]c(=S)[nH]c1=O | inactive | 
67 | O=C(O)CCC(=O)NCCC1=c2ccccc2=N/C1=C\c1c(O)n(Cc2ccc(F)cc2)c(=S)[nH]c1=O | inactive | 
68 | CCCCCCCC(=O)NC(Oc1ccccc1[N+](=O)[O-])C(Cl)(Cl)Cl (stereo not drawn) | inconclusive [activator, partial curve, poor fit] | 
